# Source: the supplement of paper PMC8728848
# The list shows a part of the results.
# B1: CBM13 2a (Mycobacterium tuberculosum), P64849 (protein)
# chain: DGPVQLKSRLGDVCLDAPSGSWFSPLVINPCNGTDFQRWNLTDDRQVESVAFPGECVNIGNALWARLQPCVNWISQHWTVQPDGLVKSDLDACLTVLGGPDPGTWVSTRWCDPNAPDQQWDSVPLEHHHHHH
# Legend:
# Test in all cases: glycan array binding signal (z-score within array); higher = stronger binding
# Settings in all cases: glycan notation: IUPAC condensed, linker removed
# [1] = molecular target: Gal(b1-4)GlcNAc(b1-3)Gal(b1-4)GlcNAc(b1-2)[Gal(b1-4)GlcNAc(b1-3)Gal(b1-4)GlcNAc(b1-6)]Man(a1-6)[Gal(b1-4)GlcNAc(b1-3)Gal(b1-4)GlcNAc(b1-2)Man(a1-3)]Man(b1-4)GlcNAc(b1-4)GlcNAc
# In short: (§1)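 The Consortium for Functional Glycomics database supplied 3228 glycan arrays, of which those lacking an available protein sequence were dropped. The binding signal, a within-array Z-score, was averaged across arrays of the same protein sequence and across linkers. Negative scores can be read as non-binding.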
# [2] = molecular target: Gal(b1-4)GlcNAc(b1-3)Gal(b1-4)GlcNAc(b1-2)[Gal(b1-4)GlcNAc(b1-3)Gal(b1-4)GlcNAc(b1-6)]Man(a1-6)[Gal(b1-4)GlcNAc(b1-3)Gal(b1-4)GlcNAc(b1-2)Man(a1-3)]Man(b1-4)GlcNAc(b1-4)[Fuc(a1-6)]GlcNAc
# In short: as §1
# [3] = molecular target: Gal(b1-4)GlcNAc(b1-3)Gal(b1-4)GlcNAc(b1-3)Gal(b1-4)GlcNAc
# In short: as §1
# [4] = molecular target: Gal(b1-4)GlcNAc(b1-3)Gal(b1-4)GlcNAc(b1-3)Gal(b1-4)GlcNAc(b1-2)Man(a1-3)[Gal(b1-4)GlcNAc(b1-3)Gal(b1-4)GlcNAc(b1-3)Gal(b1-4)GlcNAc(b1-2)Man(a1-6)]Man(b1-4)GlcNAc(b1-4)GlcNAc
# In short: as §1
# [5] = molecular target: Gal(b1-4)GlcNAc(b1-3)Gal(b1-4)GlcNAc(b1-3)Gal(b1-4)GlcNAc(b1-2)Man(a1-3)[Gal(b1-4)GlcNAc(b1-3)Gal(b1-4)GlcNAc(b1-3)Gal(b1-4)GlcNAc(b1-2)Man(a1-6)]Man(b1-4)GlcNAc(b1-4)[Fuc(a1-6)]GlcNAc
# In short: as §1
# [6] = molecular target: Gal(b1-4)GlcNAc(b1-3)Gal(b1-4)GlcNAc(b1-3)Gal(b1-4)GlcNAc(b1-2)[Gal(b1-4)GlcNAc(b1-3)Gal(b1-4)GlcNAc(b1-3)Gal(b1-4)GlcNAc(b1-6)]Man(a1-6)[Gal(b1-4)GlcNAc(b1-3)Gal(b1-4)GlcNAc(b1-3)Gal(b1-4)GlcNAc(b1-2)Man(a1-3)]Man(b1-4)GlcNAc(b1-4)[Fuc(a1-6)]GlcNAc
# In short: as §1
# [7] = molecular target: Gal(b1-4)GlcNAc(b1-3)Gal(b1-4)GlcNAc(b1-3)Gal(b1-4)GlcNAc(b1-3)Gal(b1-4)GlcNAc(b1-2)Man(a1-3)[Gal(b1-4)GlcNAc(b1-3)Gal(b1-4)GlcNAc(b1-3)Gal(b1-4)GlcNAc(b1-3)Gal(b1-4)GlcNAc(b1-2)Man(a1-6)]Man(b1-4)GlcNAc(b1-4)GlcNAc
# In short: as §1
# [8] = molecular target: Gal(b1-4)GlcNAc(b1-3)Gal(b1-4)GlcNAc(b1-3)Gal(b1-4)GlcNAc(b1-3)Gal(b1-4)GlcNAc(b1-2)Man(a1-3)[Gal(b1-4)GlcNAc(b1-3)Gal(b1-4)GlcNAc(b1-3)Gal(b1-4)GlcNAc(b1-3)Gal(b1-4)GlcNAc(b1-2)Man(a1-6)]Man(b1-4)GlcNAc(b1-4)[Fuc(a1-6)]GlcNAc
# In short: as §1
# [9] = molecular target: Gal(b1-4)GlcNAc(b1-3)Gal(b1-4)GlcNAc(b1-3)Gal(b1-4)GlcNAc(b1-3)Gal(b1-4)GlcNAc(b1-2)[Gal(b1-4)GlcNAc(b1-3)Gal(b1-4)GlcNAc(b1-3)Gal(b1-4)GlcNAc(b1-3)Gal(b1-4)GlcNAc(b1-6)]Man(a1-6)[Gal(b1-4)GlcNAc(b1-3)Gal(b1-4)GlcNAc(b1-3)Gal(b1-4)GlcNAc(b1-3)Gal(b1-4)GlcNAc(b1-2)Man(a1-3)]Man(b1-4)GlcNAc(b1-4)[Fuc(a1-6)]GlcNAc
# In short: as §1
# [10] = molecular target: Gal(b1-4)GlcNAc(b1-3)Gal(b1-4)GlcNAc(b1-3)Gal(b1-4)GlcNAc(b1-3)Gal(b1-4)GlcNAc(b1-3)Gal(b1-4)GlcNAc(b1-2)Man(a1-3)[Gal(b1-4)GlcNAc(b1-3)Gal(b1-4)GlcNAc(b1-3)Gal(b1-4)GlcNAc(b1-3)Gal(b1-4)GlcNAc(b1-3)Gal(b1-4)GlcNAc(b1-2)Man(a1-6)]Man(b1-4)GlcNAc(b1-4)GlcNAc
# In short: as §1
# [11] = molecular target: Gal(b1-4)GlcNAc(b1-3)Gal(b1-4)GlcNAc(b1-3)Gal(b1-4)GlcNAc(b1-3)Gal(b1-4)GlcNAc(b1-3)Gal(b1-4)GlcNAc(b1-2)Man(a1-3)[Gal(b1-4)GlcNAc(b1-3)Gal(b1-4)GlcNAc(b1-3)Gal(b1-4)GlcNAc(b1-3)Gal(b1-4)GlcNAc(b1-3)Gal(b1-4)GlcNAc(b1-2)Man(a1-6)]Man(b1-4)GlcNAc(b1-4)[Fuc(a1-6)]GlcNAc
# In short: as §1
# [12] = molecular target: Gal(b1-4)GlcNAc(b1-3)Gal(b1-4)GlcNAc(b1-3)Gal(b1-4)GlcNAc(b1-3)Gal(b1-4)GlcNAc(b1-3)Gal(b1-4)GlcNAc(b1-2)[Gal(b1-4)GlcNAc(b1-3)Gal(b1-4)GlcNAc(b1-3)Gal(b1-4)GlcNAc(b1-3)Gal(b1-4)GlcNAc(b1-3)Gal(b1-4)GlcNAc(b1-6)]Man(a1-6)[Gal(b1-4)GlcNAc(b1-3)Gal(b1-4)GlcNAc(b1-3)Gal(b1-4)GlcNAc(b1-3)Gal(b1-4)GlcNAc(b1-3)Gal(b1-4)GlcNAc(b1-2)Man(a1-3)]Man(b1-4)GlcNAc(b1-4)[Fuc(a1-6)]GlcNAc
# In short: as §1
# [13] = molecular target: Gal(b1-4)GlcNAc(b1-3)Gal(b1-4)GlcNAc(b1-3)Gal(b1-4)GlcNAc(b1-3)Gal(b1-4)GlcNAc(b1-3)Gal(b1-4)GlcNAc(b1-3)Gal(b1-4)GlcNAc(b1-2)Man(a1-3)[Gal(b1-4)GlcNAc(b1-3)Gal(b1-4)GlcNAc(b1-3)Gal(b1-4)GlcNAc(b1-3)Gal(b1-4)GlcNAc(b1-3)Gal(b1-4)GlcNAc(b1-3)Gal(b1-4)GlcNAc(b1-2)Man(a1-6)]Man(b1-4)GlcNAc(b1-4)GlcNAc
# In short: as §1
# [14] = molecular target: Gal(b1-4)GlcNAc(b1-3)Gal(b1-4)GlcNAc(b1-3)GalNAc
# In short: as §1
# [15] = molecular target: Gal(b1-4)GlcNAc(b1-3)Gal(b1-4)GlcNAc(b1-3)[Gal(b1-4)GlcNAc(b1-3)Gal(b1-4)GlcNAc(b1-6)]GalNAc
# In short: as §1
# [16] = molecular target: Gal(b1-4)GlcNAc(b1-3)Gal(b1-4)GlcNAc(b1-6)[Gal(b1-3)]GalNAc
# In short: as §1
# [17] = molecular target: Gal(b1-4)GlcNAc(b1-3)Gal(b1-4)[Fuc(a1-3)]GlcNAc(b1-3)Gal(b1-4)[Fuc(a1-3)]GlcNAc
# In short: as §1
# [18] = molecular target: Gal(b1-4)GlcNAc(b1-3)GalNAc
# In short: as §1
# [19] = molecular target: Gal(b1-4)GlcNAc(b1-3)[Fuc(a1-3)GlcNAc(b1-6)]Gal(b1-4)Glc
# In short: as §1
# [20] = molecular target: Gal(b1-4)GlcNAc(b1-3)[Gal(b1-4)GlcNAc(b1-6)]Gal(b1-4)GlcNAc
# In short: as §1
# [21] = molecular target: Gal(b1-4)GlcNAc(b1-3)[GlcNAc(b1-6)]Gal(b1-4)GlcNAc
# In short: as §1
# [22] = molecular target: Gal(b1-4)GlcNAc(b1-6)Gal(b1-4)GlcNAc
# In short: as §1
# [23] = molecular target: Gal(b1-4)GlcNAc(b1-6)GalNAc
# In short: as §1
# [24] = molecular target: Gal(b1-4)GlcNAc(b1-6)[Gal(b1-3)]GalNAc
# In short: as §1
# [25] = molecular target: Gal(b1-4)GlcNAc(b1-6)[Gal(b1-4)GlcNAc(b1-3)]GalNAc
# In short: as §1
# Gal(b1-4)GlcNAc6P = molecular target: Gal(b1-4)GlcNAc6P
# In short: as §1
# Gal(b1-6)Gal = molecular target: Gal(b1-6)Gal
# In short: as §1
# Gal3S(b1-3)GalNAc = molecular target: Gal3S(b1-3)GalNAc
# In short: as §1
# Gal3S(b1-3)GlcNAc = molecular target: Gal3S(b1-3)GlcNAc
# In short: as §1
# [26] = molecular target: Gal3S(b1-3)[Fuc(a1-4)]GlcNAc
# In short: as §1
# Gal3S(b1-4)Glc = molecular target: Gal3S(b1-4)Glc
# In short: as §1
# Gal3S(b1-4)Glc6S = molecular target: Gal3S(b1-4)Glc6S
# In short: as §1
# Gal3S(b1-4)GlcNAc = molecular target: Gal3S(b1-4)GlcNAc
# In short: as §1
# [27] = molecular target: Gal3S(b1-4)[Fuc(a1-3)]Glc6S
# In short: as §1
# [28] = molecular target: Gal3S(b1-4)[Fuc(a1-3)]GlcNAc
# In short: as §1
# [29] = molecular target: Gal3S(b1-4)[Fuc(a1-3)]GlcNAc6S
# In short: as §1
# Gal3S4S(b1-4)GlcNAc = molecular target: Gal3S4S(b1-4)GlcNAc
# In short: as §1
# Gal3S6S(b1-4)GlcNAc = molecular target: Gal3S6S(b1-4)GlcNAc
# In short: as §1
# Gal3S6S(b1-4)GlcNAc6S = molecular target: Gal3S6S(b1-4)GlcNAc6S
# In short: as §1
# Gal4S(b1-4)GlcNAc = molecular target: Gal4S(b1-4)GlcNAc
# In short: as §1
# Gal4S6S(b1-4)GlcNAc = molecular target: Gal4S6S(b1-4)GlcNAc
# In short: as §1
# Gal6P(b1-4)GlcNAc = molecular target: Gal6P(b1-4)GlcNAc
# In short: as §1
# Gal6S(b1-3)GlcNAc = molecular target: Gal6S(b1-3)GlcNAc
# In short: as §1
# Gal6S(b1-3)GlcNAc6S = molecular target: Gal6S(b1-3)GlcNAc6S
# In short: as §1
# Gal6S(b1-4)Glc = molecular target: Gal6S(b1-4)Glc
# In short: as §1
binder,measurement,setting,value
B1,glycan array binding signal (z-score),[1],-0.296
same,glycan array binding signal (z-score),[2],0.055
same,glycan array binding signal (z-score),[3],-0.268
same,glycan array binding signal (z-score),[4],3.22
same,glycan array binding signal (z-score),[5],0.008
same,glycan array binding signal (z-score),[6],0.084
same,glycan array binding signal (z-score),[7],0.015
same,glycan array binding signal (z-score),[8],-0.079
same,glycan array binding signal (z-score),[9],0.051
same,glycan array binding signal (z-score),[10],-0.168
same,glycan array binding signal (z-score),[11],-0.111
same,glycan array binding signal (z-score),[12],-0.002
same,glycan array binding signal (z-score),[13],0.008
same,glycan array binding signal (z-score),[14],6.08
same,glycan array binding signal (z-score),[15],4.69
same,glycan array binding signal (z-score),[16],5.73
same,glycan array binding signal (z-score),[17],-0.028
same,glycan array binding signal (z-score),[18],0.021
same,glycan array binding signal (z-score),[19],0.636
same,glycan array binding signal (z-score),[20],-0.327
same,glycan array binding signal (z-score),[21],-0.387
same,glycan array binding signal (z-score),[22],-0.365
same,glycan array binding signal (z-score),[23],-0.222
same,glycan array binding signal (z-score),[24],-0.238
same,glycan array binding signal (z-score),[25],-0.187
same,glycan array binding signal (z-score),Gal(b1-4)GlcNAc6P,-0.288
same,glycan array binding signal (z-score),Gal(b1-6)Gal,-0.005
same,glycan array binding signal (z-score),Gal3S(b1-3)GalNAc,-0.247
same,glycan array binding signal (z-score),Gal3S(b1-3)GlcNAc,-0.285
same,glycan array binding signal (z-score),[26],-0.215
same,glycan array binding signal (z-score),Gal3S(b1-4)Glc,-0.159
same,glycan array binding signal (z-score),Gal3S(b1-4)Glc6S,-0.241
same,glycan array binding signal (z-score),Gal3S(b1-4)GlcNAc,-0.284
same,glycan array binding signal (z-score),[27],0.013
same,glycan array binding signal (z-score),[28],-0.425
same,glycan array binding signal (z-score),[29],-0.272
same,glycan array binding signal (z-score),Gal3S4S(b1-4)GlcNAc,-0.265
same,glycan array binding signal (z-score),Gal3S6S(b1-4)GlcNAc,-0.326
same,glycan array binding signal (z-score),Gal3S6S(b1-4)GlcNAc6S,-0.097
same,glycan array binding signal (z-score),Gal4S(b1-4)GlcNAc,-0.154
same,glycan array binding signal (z-score),Gal4S6S(b1-4)GlcNAc,-0.102
same,glycan array binding signal (z-score),Gal6P(b1-4)GlcNAc,-0.708
same,glycan array binding signal (z-score),Gal6S(b1-3)GlcNAc,-0.188
same,glycan array binding signal (z-score),Gal6S(b1-3)GlcNAc6S,-0.399
same,glycan array binding signal (z-score),Gal6S(b1-4)Glc,-0.159
